The results in this text go back to the supplement of paper PMC11417369.

± gives the standard deviation of the averaged measurements. Some of the results follow.

For this experiment, the system named is PfAP2-EXP AP2 domain (GST-tagged). Put plainly: gcPBM binding intensity (ln(normalized median fluorescence intensity)); higher = stronger DNA binding. In outline:
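Alexa488 anti-GST antibody, scanned at 488 nm, detected GST-tagged P. falciparum DNA-binding domains that had been expressed in E. coli and incubated for 1 h on an Agilent 4 × 180k array. The array carried primer-extended double-stranded 36-bp intergenic genomic probes and negative controls. Binding intensity is the highest Masliner-normalised natural-log median intensity across replicate spots of either orientation of each probe.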
As for “AAATATTATAGCACCACACACTTATTTTATTTATAT [CACACA_site7133]”, the “gcPBM binding intensity (ln)” value was found to be 8.78 ± 0.12. As to “ATCATCTATGTTATTACACACGTTATGTTATTATAA [CACACA_site5502]”, the “gcPBM binding intensity (ln)” value worked out at 8.71 ± 0.6. With “TTTTTTTTTTTTTTATGTACGAAAGAAAAGCACATA [XGTACX_site8261]”, the “gcPBM binding intensity (ln)” value was determined as 8.57 ± 0.27. With “TTTAGATAATTCATTACACACATGTATATTTATATA [CACACA_site7602]”, the “gcPBM binding intensity (ln)” value came to 8.34 ± 0.34.

For “TAACGAATTTAAATTTGTACATATATAAATATATAA [XGTACX_site2168]”, the “gcPBM binding intensity (ln)” value was 8.23 ± 0.36. In the case of “TATTTTATCTATTTGTGTACTTATATTTATGCAAAA [XGTACX_site1499]”, the “gcPBM binding intensity (ln)” value stood at 8.84 ± 0.24. Then AAAAAAAAAAAATGTGTGCACATTATTTCAACTTAA, with 8.37 ± 0.13; and “TATATATATAATATTGCACACAAAATTAAAAGTAAA [CACACA_site7889]”, with 8.85 ± 0.19; and “ATAAATAATATATATACACACATATCTATACATATT [CACACA_site487]”, with 8.4 ± 0.42. For “AAATTATTAAAAAAAAGTACATATATATATATATAT [XGTACX_site8313]”, the “gcPBM binding intensity (ln)” value stood at 10.4 ± 0.25. Under “ATAATACACGATTATTTTCCCTTTATGTAAATATAT [CACACA_negctrl_site1107]” stands 8.54 ± 0.33; under “TAAATCAGCCATAACACACATACATATATACATAAA [CACACA_site396]”, 8.41 ± 0.41. On to “TTTTTCATTTTTAAAATAATTATAATATTATACATA [XGTACX_negctrl_site43]”, for which the “gcPBM binding intensity (ln)” value amounted to 8.41 ± 0.3.

Consider “TAAATATATATTATATGTACTTATATATATATATAT [XGTACX_site4448]”, for which the “gcPBM binding intensity (ln)” value came out at 9.85 ± 0.3. Consider “ATAATTAACAAATACACACACACACGCCCACAAAAA [CACACA_site6389]”, for which the “gcPBM binding intensity (ln)” value amounted to 8.92 ± 0.49. Consider “AGCAAATAAATAAATAAATAAATAAATATATATATA [TGCATGCA_negctrl_site40]”, for which the “gcPBM binding intensity (ln)” value is 9.62 ± 0.11.

As to “TTTTAATAAAAGCCCATGCACACCTTAGAAAGTTTT [CACACA_site346]”, the “gcPBM binding intensity (ln)” value is 8.36 ± 0.45. For “ATATATATGTGTAAAAGTACATATATTTTGAAATAT [XGTACX_site4024]”, the “gcPBM binding intensity (ln)” value was 8.54 ± 0.3.

Turning to “AAAAAAAAAAAAATGTGTACATACATATATTTATAT [XGTACX_site3076]”, the “gcPBM binding intensity (ln)” value came to 8.38 ± 0.13. Regarding “GGAAAAGGTATCCGTTCACACATAAATGGATACCAT [CACACA_site5072]”, the “gcPBM binding intensity (ln)” value stood at 8.31 ± 0.4. In the case of “TGGGCACCCATATACACACACAAATACAATGATAAA [CACACA_site4762]”, the “gcPBM binding intensity (ln)” value worked out at 8.61 ± 0.45.

For the sequence “TATATATATGTATATGTGCACAGTTTTCTTATTAAA [GTGCAC_site9990]”, the “gcPBM binding intensity (ln)” value is 8.9 ± 0.092. Take “AATATATTATATATATGTACATATGTGTATACATTT [XGTACX_site937]”: the “gcPBM binding intensity (ln)” value came out at 8.55 ± 0.3. Under “TTTTATTTATTTTATTGTACATATATAAAACTATGA [XGTACX_site3476]” stands 8.57 ± 0.42; under “TCTATATAGATTTGCACACATAAAAATGCTTATATA [CACACA_site2389]”, 8.57 ± 0.39; under ATTACATATTGATAAGTGCAAGTGTGAGAAATGTTA, 8.76 ± 0.32. “CAATCAAATGGACACACACACACCTAAACATAAAAG [CACACA_site5524]”: the “gcPBM binding intensity (ln)” value turned out to be 8.78 ± 0.54.

“CTTTTTTTTTTAAATTGTACAAATGTGATGTAATAG [XGTACX_site3219]”: the “gcPBM binding intensity (ln)” value is 8.52 ± 0.4. With “ATTAAAAAATTACAAGCATGCTTGTTAAAATTTTTT [TGCATGCA_site941]”, the “gcPBM binding intensity (ln)” value was 8.4 ± 0.35. In the case of “TAGACAAAATATAATGCACACTATTATTTTTATTTA [CACACA_site5508]”, the “gcPBM binding intensity (ln)” value came to 8.58 ± 0.18. Turning to “TAAAATTTTATAAAGGAACACACATTTTTTTTTTTT [CACACA_site8740]”, the “gcPBM binding intensity (ln)” value came to 8.24 ± 0.32. In the case of “AACTTGTATTTATACACACACACACTGTCTTTTTTT [CACACA_site7009]”, the “gcPBM binding intensity (ln)” value came to 8.93 ± 0.39. On to “TATTTTAATATGTATACATGCATACCTACTCATACA [TGCATGCA_site779]”, for which the “gcPBM binding intensity (ln)” value stood at 8.91 ± 0.34. With “AATTTAAAAATGGACACACACAAAAAATAATACTTA [CACACA_site250]”, the “gcPBM binding intensity (ln)” value was found to be 8.71 ± 0.57. On to “AAAAAAGTTGTATTTGCACACATAAAAAAAAGATAT [CACACA_site3839]”, for which the “gcPBM binding intensity (ln)” value was 8.88 ± 0.31. For AAAAATTAACAAAAGGTGCAATTTATTTATTAACGG, the “gcPBM binding intensity (ln)” value turned out to be 8.47 ± 0.2. With “TTATAAATAAAAAATACACACATATATATATATATA [CACACA_site207]”, the “gcPBM binding intensity (ln)” value came out at 10.1 ± 0.34. As to “GTATATTATATTGGGTGTACCATATATAATATAATC [XGTACX_site8579]”, the “gcPBM binding intensity (ln)” value is 8.45 ± 0.35. Take “TATTCTCTCTTATGAACACACATTTTTATTTTCAAA [CACACA_site7554]”: the “gcPBM binding intensity (ln)” value is 8.62 ± 0.4. In the case of “GGAAACAAAAAATATATACACACTAATCATAAAAAA [CACACA_site7890]”, the “gcPBM binding intensity (ln)” value worked out at 8.62 ± 0.54. As for “ATTAATATATTATCATGTACACAAAAATAATTTTAT [XGTACX_site7257]”, the “gcPBM binding intensity (ln)” value was 8.45 ± 0.26. On to TAAAAATATATATGATTGCACTTAGGACAATATATA, for which the “gcPBM binding intensity (ln)” value was 8.38 ± 0.29. Regarding “AAGAAAAATATATAAATAAATAAATATATAAATATA [CACACA_negctrl_site836]”, the “gcPBM binding intensity (ln)” value was 8.06 ± 0.38. In the case of “AATAAAAAAAGTTTTTTTTTTTTTTAAACAATAGAC [CACACA_negctrl_site1061]”, the “gcPBM binding intensity (ln)” value turned out to be 8.31 ± 0.37. Then “AAGAATGTTAATAGTACACACAATTATTATATAAAT [CACACA_site3739]”, with 8.53 ± 0.35.
